Experimental data: publication PMC3624423, “Tetramerization of SAMHD1 Is Required for Biological Activity and Inhibition of HIV Infection*^([image sbox.jpg])” (The Journal of Biological Chemistry, 2013)

Target: the molecule itself
Assay: SEC

B1: recombinant SAMHD1(LF620AA) (enzyme)
chain: not shown
B1: binds.
